Results reported in PubChem BioAssay AID2675 (National Center for Advancing Translational Sciences (NCATS), 2010).
In all, about 280,000 compounds went through this assay and about 100 (0.036%) were called active. Inconclusive results, whose numbers are uncertain, are shown with a selection of clear calls. Calls follow the shape of the dose curve; as a rule, active = well fitted inhibition curve with a large enough effect in the signal ratio, with a control signal flat (not every such curve was filed as active); inconclusive = small, poorly fitted or top-dose-only effect, or effect the other way, or a change in a side signal; inactive = no such curve, though single readings can be large or run the other way; the % refers to the signal ratio. Where the call is inconclusive, the potency comes from a doubtful curve fit. “Side channel” marks fits to a control or component signal instead of the main read-out.

target: Muscleblind-like protein 1 (Homo sapiens) (UniProt Q9NR56); experiment: qHTS Assay for Inhibitors of MBNL1-poly(CUG) RNA binding; conditions: TR-FRET MBNL1-His/biotin-(CUG)12 binding, 665/545 ratio; activity change, negative = inhibition: at 57.5 µM (top of the series)
Sequence of UniProt Q9NR56 (Q9NR56 whole entry, looked up): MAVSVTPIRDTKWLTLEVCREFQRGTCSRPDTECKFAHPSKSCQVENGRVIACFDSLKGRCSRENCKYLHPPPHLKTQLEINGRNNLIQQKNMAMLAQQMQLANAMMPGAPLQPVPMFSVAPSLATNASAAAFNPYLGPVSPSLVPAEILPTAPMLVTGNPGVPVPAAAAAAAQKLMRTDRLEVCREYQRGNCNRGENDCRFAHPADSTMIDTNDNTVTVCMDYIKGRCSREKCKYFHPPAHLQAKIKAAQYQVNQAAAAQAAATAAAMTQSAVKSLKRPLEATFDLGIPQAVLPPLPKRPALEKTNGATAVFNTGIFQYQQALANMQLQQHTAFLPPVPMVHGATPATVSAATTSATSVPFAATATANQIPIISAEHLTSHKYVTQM
Method in brief: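 Inhibition of protein-RNA binding appears as loss of TR-FRET between terbium anti-His antibody on MBNL1-His and streptavidin-XL665 on biotin-(CUG)12. Activity is normalized to buffer-only and uninhibited-complex controls.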
% is scaled to controls: 0 for no effect and ±100 for the full control effect; potency is read from the fitted curve at half-maximal effect; tags tell the direction and shape of the fitted curve or compound fluorescence and quenching.

Row | Compound | Potency | activity change, negative = inhibition
1 | N#Cc1ccccc1OCCN1C(=O)c2ccccc2C1=O | inconclusive: 17.8 µM [quencher, side channel, single point] | 
2 | Cc1cc(/C=N/O)c(C)n1-c1ccc(Br)cc1 | inactive | 
3 | COCCn1c(C)cc(C2=NNC(=Nc3ccccc3)SC2)c1C | inactive | 
4 | Cc1c(-c2ccc(/C=N/NC(=O)C(=O)Nc3ccccc3F)o2)cccc1[N+](=O)[O-] | inconclusive: 28.2 µM [fluorescent, side channel, single point] | 
5 | Cc1nn(-c2cccc([N+](=O)[O-])c2)c(N)c1-c1ccccc1 | inconclusive: 7.08 µM [quencher, side channel, partial curve] | 
6 | O=c1c2c(-c3ccc([N+](=O)[O-])cc3)csc2nc2n1CCCCC2 | inconclusive: 22.4 µM [quencher, side channel, partial curve] | 
7 | CN1CCN(Cc2nc3c(c(=O)n(C)c(=O)n3C)n2CCCc2ccccc2)CC1 | inactive | 
8 | Cc1occc1C(=O)N/N=C/C=C/c1ccccc1 | inconclusive: 17.8 µM [quencher, side channel, partial curve] | 
9 | COC(=O)N1C(=O)[C@@](c2ccccc2)(C2CCCC2)N1C(=O)OC | inactive | 
10 | Cc1ccc(NC(=O)CCCc2ccccc2)c([N+](=O)[O-])c1 | inconclusive: 8.91 µM [quencher, side channel, partial curve] | 
11 | COc1ccc(CC(=O)N2CCN=C2SCc2ccc([N+](=O)[O-])cc2)cc1 | inactive | 
12 | CCOc1ccc(S(=O)(=O)NC(Cc2cnc[nH]2)C(=O)O)cc1 (configuration not stated) | inactive | 
13 | COc1ccc(C2(CNC(=O)c3ccccc3[N+](=O)[O-])CCOCC2)cc1 | inactive | 
14 | CC1CCN(S(=O)(=O)c2cccc(C(=O)N(Cc3ccccc3)c3ccccn3)c2)CC1 | inactive | 
15 | O=C(O)CCC(=O)Nc1nc2nc(-c3ccccc3)cc(-c3ccccc3)n2n1 | inconclusive: 8.91 µM [quencher, side channel, partial curve] | 
16 | Cc1nccc(-c2sc(-c3cccs3)nc2C)n1 | inconclusive: 12.6 µM [quencher, side channel, partial curve] | 
17 | CCCc1cc2c(-c3ccccc3)cc(=O)oc2cc1OCc1ccc(C(=O)O)o1 | inactive | 
18 | COc1ccc(N(Cc2cc3ccccc3[nH]c2=O)S(C)(=O)=O)cc1 |  | inactive: 3.63% [at 11.5 µM]
19 | O=C(OCC(=O)N1CCCCCC1)c1ccc([N+](=O)[O-])cc1Cl | inconclusive: 12.6 µM [quencher, side channel, partial curve] | 
20 | COc1ccc(N2CCc3c(C)nc4c(OC)cc(OC)cc4c32)c(OC)c1 | inconclusive: 25.1 µM [quencher, partial curve] | 
21 | COc1ccc(/C=c2\s/c(=C/C(=O)c3ccc(C)cc3)[nH]c2=O)c(OC)c1 | inactive | 

Row | Compound | Potency | activity change, negative = inhibition
22 | Cc1ccc(SC/C(O)=C(\C#N)c2nc3ccccc3n2C)cc1 | inconclusive: 39.8 µM [fluorescent, side channel, single point] | 
23 | O=C(O)c1cccc(N2C(=O)c3cccnc3C2=O)c1 | inconclusive: 12.6 µM [quencher, side channel, partial curve] | 
24 | O=C(O)CCn1cc(/C=N/O)c(-c2cccc([N+](=O)[O-])c2)n1 | inconclusive: 39.8 µM [quencher, side channel, partial curve, poor fit] | 
25 | CN1CCN(c2ccc(S(=O)(=O)Nc3ccccc3)cc2[N+](=O)[O-])CC1 | inconclusive: 11.2 µM [quencher, side channel, partial curve] | 
26 | CSc1ccccc1NC(=O)c1cc(C2CC2)on1 | inconclusive: 1.41 µM [quencher, side channel, full curve] | 
27 | O=C(COC(=O)CCNS(=O)(=O)c1cccc(C(F)(F)F)c1)NC(=O)NC1CCCCC1 | inconclusive: 6.31 µM [quencher, side channel, single point] | 
28 | O=C(Cn1nc(-c2ccccc2)ccc1=O)Nc1ccc(N2CCN(C(=O)c3ccccc3)CC2)cc1 | inconclusive: 5.01 µM [quencher, side channel, single point] | 
29 | CCC(C)OC(=O)C1=C(C)OC23OC(N)=C(C#N)C12C(=O)c1ccccc13 (configuration not stated) | inconclusive: 39.8 µM [quencher, side channel, single point] | 
30 | CN(C)c1nc(C(=O)NN)nc(N(C)C)n1 | inactive | 
31 | Cc1nn2c(-c3ccccn3)ccnc2c1Br | inconclusive: 28.2 µM [quencher, side channel, single point] | 
32 | CC1=C([N+](=O)[O-])C(c2ccccc2)C2=C(N1)c1ccccc1C2=O (configuration not stated) | inconclusive: 12.6 µM [quencher, side channel, partial curve] | 
33 | CCOc1cc(Br)c(C(=O)O)cc1OC | inactive | 
34 | COc1ccc2c(C)cc(SCC(=O)N(C)C3CCS(=O)(=O)C3)nc2c1 (configuration not stated) | inactive | 
35 | CCn1c(=O)c(=O)[nH]c2c(=O)oc3ccc(S(=O)(=O)Nc4ccccc4)cc3c21 | inconclusive: 5.01 µM [quencher, side channel, single point] | 
36 | NC(=S)N/N=C/c1cccc(Br)c1 | inactive | 
37 | CC1=NNC(=O)C1CC(=O)N/N=C/C=C/c1ccccc1 (configuration not stated) | inconclusive: 17.8 µM [quencher, side channel, partial curve] | 
38 | Cc1cc2ncn(/N=C/c3ccc([N+](=O)[O-])o3)c2cc1C | inconclusive: 4.47 µM [quencher, side channel, partial curve] | 
39 | O=Cc1c(N2CCN(CCO)CC2)nc2ccccn2c1=O | inconclusive: 28.2 µM [quencher, side channel, single point] | 
40 | O=[N+]([O-])c1ccc(C2Nc3cccc4cccc(c34)N2)cc1 | inconclusive: 12.6 µM [quencher, partial curve, poor fit] | 
41 | CC(C)N(C(=O)COC(=O)c1ccccc1C(=O)c1ccc(Cl)c([N+](=O)[O-])c1)C(C)C | inconclusive: 25.1 µM [quencher, side channel, single point] | 
42 | CC(C)(C)N1C(=O)c2ccc(C(=O)Nc3cc(C(=O)O)cc(C(=O)O)c3)cc2C1=O | inconclusive: 15.8 µM [quencher, partial curve] | 

Row | Compound | Potency | activity change, negative = inhibition
43 | Cn1cc(-c2cccc(Cl)c2)cc(C#N)c1=O | inconclusive: 28.2 µM [quencher, side channel, partial curve] | 
44 | COc1ccc([N+](=O)[O-])cc1N(CC(=O)NC(C(C)C)C(C)C)S(C)(=O)=O | inconclusive: 35.5 µM [quencher, side channel, single point] | 
45 | O=C1C=C(Nc2ccccc2)C(=O)c2ccccc21 | inconclusive: 2.24 µM [quencher, side channel, full curve] | 
46 | Cc1c(O)cc2c(c1O)C(=O)CC(c1ccccc1)O2 (configuration not stated) | inactive | 
47 | Cc1ccc(OCC(=O)NC(=S)Nc2cccc(C)n2)cc1 | inactive | 
48 | C/C(=N\NC(=O)c1cccc([N+](=O)[O-])c1)c1cccc(NC(=O)C2CC2)c1 | inconclusive: 11.2 µM [quencher, side channel, partial curve] | 
49 | COCC(=O)Nc1ccccc1C(=O)Nc1ccc(OC)cc1 | inactive | 
50 | CC(Nc1c([N+](=O)[O-])c(=O)oc2ccccc12)c1ccccc1 (configuration not stated) | inconclusive: 15.8 µM [quencher, partial curve] | 
51 | Cc1ccc(CNC(=O)CCS(=O)(=O)c2cccc3nsnc23)cc1 | inconclusive: 15.8 µM [quencher, side channel, partial curve] | 
52 | COc1ccc(C2CC(c3ccc([N+](=O)[O-])cc3)=NN2C(=O)c2ccccc2)cc1OC (configuration not stated) | inconclusive: 3.98 µM [quencher, side channel, single point] | 
53 | COCCn1nnnc1C(c1cc2c(C)cc(C)cc2[nH]c1=O)N1CCCCCC1 (configuration not stated) | inconclusive: 14.1 µM [quencher, partial curve] | 
54 | CC(C(=O)Nc1cccc([N+](=O)[O-])c1)n1nnc2ccccc21 (configuration not stated) | inconclusive: 14.1 µM [quencher, partial curve] | 
55 | Cc1occc1C(=O)NNC(=S)Nc1cccc([N+](=O)[O-])c1 | inconclusive: 10 µM [quencher, side channel, partial curve] | 
56 | Cc1ccc(SCCNC(=O)c2ccc([N+](=O)[O-])c(C)c2)cc1 | inconclusive: 25.1 µM [quencher, single point] | 
57 | C=CCNC(=O)c1ccc(-c2nc(-c3ccccc3)cs2)cc1 | inconclusive: 0.794 µM [quencher, side channel, full curve, poor fit] | 
58 | COc1ccc(Nc2ccc(C(F)(F)F)cc2[N+](=O)[O-])cn1 | inconclusive: 17.8 µM [quencher, side channel, partial curve] | 
59 | CN(CC(=O)Nc1ccccc1Cl)CC(=O)Nc1ccccc1[N+](=O)[O-] | inconclusive: 25.1 µM [quencher, side channel, single point] | 
60 | CC(=O)N1C(=O)NC(c2ccccc2)=C([N+](=O)[O-])C1c1ccccc1 (configuration not stated) | inconclusive: 28.2 µM [quencher, side channel, partial curve] | 
61 | CCOc1ccccc1NC(=O)C1CCCN(S(=O)(=O)c2cccc3nsnc23)C1 (configuration not stated) | inconclusive: 3.16 µM [quencher, side channel, full curve] | 
62 | C=CCn1nnc2sc3c(c2c1=O)CCC(C)C3 (configuration not stated) | inconclusive: 22.4 µM [quencher, side channel, single point] | 
